# Data reported in ChEMBL document CHEMBL1157539, “Thousands of chemical starting points for antimalarial lead identification” (Nature, 2010).
# Over roughly 13,000 compounds, “IFI” has its median near 4; the highest 2% begin near 17. This is one part of the list.
# Experiment: GSK_TCMDC: Inhibition Frequency Index (IFI). The number of non-kinase HTS assays where a compound showed > 50 % inhibition, expressed as a percentage of the number of such assays in which the compound was tested (-0 is zero)
# Type: functional
row,Structure (SMILES),IFI
1,CC(CN(C)C)C(=O)Nc1ccc(-c2ccc(-c3nc4ccccc4[nH]3)cc2)cc1 (stereo unspecified),2.73%
2,NC(=O)c1cccc(Nc2nccc(Nc3ccc(Oc4c(Cl)cccc4Cl)c(Cl)c3)n2)c1,6.57%
3,Nc1ncc(-c2cc3ccccc3o2)c(N)n1,1.41%
4,COc1cc(NC(=O)C(c2ccc(Cl)cc2)C(C)C)cc(OC)c1 (stereo unspecified),2.27%
5,Cc1c(-c2cccc(Br)c2)[nH]c2nc(N)nc(N)c12,3.52%
6,N#Cc1cccc(NC(=O)Nc2ccc3c(c2)CCN(C2CCC2)CC3)c1,0.79%
7,CNC(=O)NC1CCN(Cc2c(-c3cccs3)nc3ccccc3c2C(=O)N[C@@H](C)C2CCCCC2)CC1,1.48%
8,CCCCCOc1ccc(N2C(N)=NC(N)=NC2(C)C)cc1,2.19%
9,CCc1cccc2c(C#N)cn(CC(=O)NCCc3ccccc3)c12,0.95%
10,CN1CCN(c2ccnc3ccc(NC(=O)Nc4c(Cl)cccc4Cl)cc23)CC1,-0%
11,CC(CN(C)C)C(=O)Nc1cccc(-c2ccc(-c3nc4ccccc4[nH]3)s2)c1 (stereo unspecified),0.92%
12,CCn1ccc2c(N3CCCC3=O)cc(C(=O)N[C@@H](Cc3ccccc3)[C@H](O)CNC3CCCCC3)cc21,0.76%
13,O=C1OC2(CCN(C(=O)c3ccc(-n4cnnn4)cc3)CC2)CN1Cc1ccc(Cl)c(Cl)c1,-0%
14,N#Cc1cc([N+](=O)[O-])ccc1-n1nc(-c2cccc(Cl)c2)n(Cc2ccco2)c1=S,5.44%
15,Cc1cc2nc(-c3ccc(OCC(=O)NCc4ccc(C(C)(C)C)cc4)cc3)[nH]c2cc1C,3.01%
16,O=C(C=Cc1cn(-c2ccccc2)nc1-c1cccs1)N1CCN(c2ccncc2)CC1,14.6%
17,COc1ccc(-c2cccc(NC(=O)c3cccc(Cl)c3)c2)cc1CN1CCCN(C)CC1,7.77%
18,C[C@H](Cc1ccc(OCCCCCCCOc2ccc(C[C@@H](C)NC[C@H](O)c3cccc(Cl)c3)cc2)cc1)NC[C@H](O)c1cccc(Cl)c1,22.1%
19,COc1ccc(NS(=O)(=O)c2ccc(Oc3nc(C)nc4sc5c(c34)CCCC5)cc2)cc1,8.08%
20,CCN(CC)CCCC(C)Nc1ccnc2cc(Cl)ccc12 (stereo unspecified),0%
21,O=C(Nc1ccc(C(F)(F)F)cc1)Nc1cccc([N+](=O)[O-])c1,19.1%
22,COc1ccccc1C1CCN(C2CCC(NC(=O)c3cc4cc(C(C)C)ccc4[nH]3)CC2)CC1 (stereo unspecified),18%
23,COc1ccc(NC(=O)NC2CCN(CCCCCNC(=O)/C=C/c3ccc(Cl)c(Cl)c3)C2)c(OC)c1 (stereo unspecified),3.42%

row,Structure (SMILES),IFI
1,CCn1c(-c2nonc2N)nc2cnc(Oc3cccc(NC(=O)c4ccc(OCCCN5CCCCC5)cc4)c3)cc21,4.72%
2,CC1(C)[C@H]2CC[C@@H](CNc3nc(NCCc4c[nH]cn4)nc(Nc4ccc(Oc5ccccc5)cc4)n3)[C@@H]1C2,2.19%
3,Nc1nc(N)c2cc(Cc3ccc([N+](=O)[O-])cc3)cnc2n1,0.85%
4,COc1ccccc1C1CN(Cc2coc3ccccc3c2=O)Cc2ccccc2O1 (stereo unspecified),5%
5,O=C(Nc1ccc(C(=O)N(Cc2ccc3c(c2)OCO3)C2CCCC2)cc1)c1cccs1,2.27%
6,N#Cc1ccc(-c2ccc(C(=O)NC3CCN(CCN4CCc5c(cccc5C(F)(F)F)C4)CC3)cc2)cc1,8.06%
7,Fc1ccc2[nH]c(-c3cccc(-c4ccc(CN5CCN(CCN6CCOCC6)CC5)cc4)c3)nc2c1,4.23%
8,C[C@@H](COc1ccc(-c2ccccc2)cc1)CON1C(N)=NC(N)=NC1(C)C,7.19%
9,CC1(C)NC(N)=NC(=N)N1OCCCOc1ccccc1N,2.26%
10,Oc1ccc2[nH]c(-c3ccc(OC(F)(F)F)cc3)nc2c1CNC1CCCC1,5.81%
11,O=C(Nc1ccc(-c2nc3ccccc3[nH]2)cc1)c1cccc(S(=O)(=O)N2CCOCC2)c1,2.67%
12,CCC(CC)n1c(C)cc2c3c(N)nc(N)nc3ccc21,3.73%
13,Cc1nc(C)c(-c2ccc(Oc3ccc(OC(F)(F)F)cc3)cc2)c(OC(=O)c2ccc(CN(C)C)cc2)c1Cl,2.33%
14,Cc1cccc(-c2nn(-c3ccccc3)c3[nH]c(=O)c(CNC4CCCC4)cc23)c1,4.46%
15,Oc1ccc2[nH]c(-c3cccc(F)c3)nc2c1CN1CCC(O)(c2ccccc2)CC1,5.66%
16,CCNc1cc(C(=O)N[C@@H](Cc2ccccc2)[C@H](O)CNCCc2cc(OC)cc(OC)c2)cc(N2CCCCS2(=O)=O)c1,2.29%
17,COc1cc(-c2cc(-c3ccc(OCCN(C)C)cc3)[nH]c2-c2ccncc2)ccc1Cl,4.51%
18,CCc1c[nH]c2c(N3CCCC3=O)cc(C(=O)N[C@@H](Cc3ccccc3)[C@H](O)CNC(C)(C)c3cccc(OC)c3)cc12,1.43%
19,NC1=NC2(CCCCC2)N(OCCCCCCN2C(=O)c3ccccc3C2=O)C(N)=N1,1.43%
20,CO/C(=C\C=C\c1cc2cc(Cl)c(Cl)cc2[nH]1)C(=O)NCCCN1CCN(c2cccc(OCC(=O)Nc3ccccc3)c2)CC1,7.03%
21,Cc1cc(Nc2ccc(Oc3ccc(Cl)cc3)cc2)nc(N)n1,7.53%
22,Cc1cccc2nc(-c3ccc(-c4cccc(NC(=O)C(C)CN(C)C)c4)cc3)[nH]c12 (stereo unspecified),8.11%
23,Cc1ccc(Nc2nnc(SCC(=O)Nc3ccc(CN4CCCC4)cc3)s2)cc1,1.89%

row,Structure (SMILES),IFI
1,CC(C)C1=CC(=NOS(=O)(=O)c2ccccc2)C=C(C(C)C)C1=O,6.77%
2,CC(CNCc1cn(Cc2cc(Br)cc(Br)c2)c2ccccc12)CNc1cc(=O)c2ccccc2[nH]1 (stereo unspecified),13.2%
3,CCC(=O)Nc1cc(=O)[nH]c2nc(-c3ccc(Cl)cc3)nn12,1%
4,COc1ccc2nccc([C@@H](O)CN3CCC(NCCOc4cccc(F)c4F)CC3)c2c1,1.59%
5,O=S(=O)(NCCN1CCCC1)c1ccc(-c2ccc(CNCc3ccccc3)cc2)cc1F,6.54%
6,Cc1cccc2nc(-c3ccc(-c4ccc(CN5CCN(CCN6CCOCC6)CC5)cc4)s3)[nH]c12,2.82%
7,CCN(CC)CCN(Cc1ccc(-c2ccc(C(F)(F)F)cc2)cc1)C(=O)Cn1c(CCc2c(F)ccc(F)c2F)nc(=O)c2ccccc21,9.09%
8,CN(C)/C(=N/C(=N)NCc1ccc(Cl)c(Cl)c1)NCCCCCCN/C(=N\C(=N)NCc1ccc(Cl)c(Cl)c1)N(C)C,11.8%
9,Clc1ccc(CNC2CCN(CC3CCCCC3)CC2)cc1,3.38%
10,CCOC(=O)c1c(-c2ccccc2)nc2c(sc3ccccc32)c1O,1.48%
11,O=C(Nc1cccc(-c2cccc(-c3nc4cc(C(F)(F)F)ccc4[nH]3)c2)c1)c1ccncc1,7.41%
12,Clc1ccc(-c2cc3c(NCc4ccncc4)nccc3s2)cc1,8.7%
13,COc1ccc(-c2nc(NC(=O)CS(=O)(=O)c3ccccc3)sc2C)cc1,1.72%
14,CCOc1ccc(C(C)NC(=O)Cc2ccccc2F)cc1OCC (stereo unspecified),0%
15,CCOC(=O)c1ccc(NC(=O)Nc2ccc(-c3cccc(-c4nc5ccccc5[nH]4)c3)cc2)cc1,7%
16,NC(=O)c1cccc(CN2Cc3ccccc3OC3(CCN(Cc4c[nH]c5cnccc45)CC3)C2)c1,1.64%
17,COc1cccc(NC(=O)Nc2cc(C)nc3ccccc23)c1,3.08%
18,COc1ccc(CN2CCCN(Cc3cccc(NC(=O)c4cc5ccccc5s4)c3)CC2)cc1,9.85%
19,CCCCc1ccc(C(=O)NC2CCN(C[C@H](O)c3ccnc4ccc(OC)cc34)CC2)cc1,5.93%
20,COc1cc(OC)c(NC(=O)COc2ccc(C)cc2)cc1Cl,1.49%
21,Clc1ccccc1/C=C/c1cncnc1Nc1ccc2[nH]c(Cc3ccccc3)nc2c1,4.14%
22,CC1(C)C(=O)Nc2ccc3c(c21)CC1SC(=O)NN=C31 (stereo unspecified),2.22%
23,Cc1cc(C(=O)Nc2ccc3c(c2)CCN3C2CCN(Cc3cccc(F)c3F)C2)no1 (stereo unspecified),-0%

row,Structure (SMILES),IFI
1,CC1CN(c2ccc(NC(=O)c3cccs3)cc2)CCN1Cc1cccc(F)c1 (stereo unspecified),-0%
2,CC1=C(C(=O)Nc2cc3cn[nH]c3cc2F)C(c2ccc(Cl)c(NS(C)(=O)=O)c2)CC(=O)N1 (stereo unspecified),0.89%
3,CN1CCCN(Cc2cccc(-c3cccc(NS(=O)(=O)c4cccc5cccnc45)c3)c2)CC1,9.3%
4,CNC(=O)c1cncc(/C=C/c2ccccc2S(N)(=O)=O)c1,0%
5,CC(C)(CNC(=O)/C=C/c1ccc(C(F)(F)F)cc1)CNc1cc(=O)c2ccccc2[nH]1,4.35%
6,O=C(Nc1cccc(Cl)c1Cl)Nc1ccnc2ccccc12,5.76%
7,Nc1c2c(nc3ccc(C(=O)Nc4ccc(Br)cc4)cc13)CCCC2,9.03%
8,CN(C(=O)c1cc2c(-c3cncnc3)cccc2[nH]1)c1ccccc1,2.56%
9,CC(C)(C)OC(=O)NCC(=O)N(Cc1ccccc1)Cc1ccccc1,1.57%
10,CCOC(=O)c1ccc(NC(=O)N[C@@H](Cc2ccc(O)cc2)C(=O)NC2CCN(Cc3ccc4c(c3)OCO4)CC2)cc1,2.7%
11,NCC(NC(=O)c1ccc(-c2c[nH]c3ncccc23)s1)c1ccccc1 (stereo unspecified),16.1%
12,O=C(Nc1cccc(Cl)c1N1CCOCC1)C(Cl)(Cl)Cl,1.64%
13,COc1ccc2nccc([C@@H](O)CN3CCC(NCc4cn5cc(F)ccc5n4)CC3)c2c1,-0%
14,CCSc1nnc(C2CCCN(CC(=O)Nc3cc(C(F)(F)F)ccc3Cl)C2)n1CC (stereo unspecified),4.55%
15,Cc1nnsc1C(=O)Nc1cccc(-c2ccc(-c3nc4cc(C(F)(F)F)ccc4[nH]3)cc2)c1,8.11%
16,CCN(CC)CCNc1ccnc2ccc3ccccc3c12,-0%
17,COc1ccc(C2=[N+]([O-])c3ccccc3C2=O)cc1,2.16%
18,COc1ccccc1NC(=O)OC(COc1ccc(N)cc1)CN1CC=C(c2ccccc2)CC1 (stereo unspecified),1.57%
19,NC1CCN(Cc2cccc(-c3ccc(-c4nc5cc(C(F)(F)F)ccc5[nH]4)cc3)c2)C1 (stereo unspecified),2.82%
20,COC1(C)Oc2ccc3cccc([N+](=O)[O-])c3c2C1=O (stereo unspecified),0.74%
21,Cc1nc(C)c(-c2ccc(Cl)cc2Cl)c(O)c1Br,-0%
22,N#Cc1ccc(NC(=O)Nc2ccc3c(c2)CCN(C2CCC2)CC3)cc1,-0%
